Test results: the supplement of paper PMC7125110
± gives the standard error. Variants at the background level are over-represented here.

B1: glmS ribozyme (parent)
chain: AUAAAAGCGCCAGAACUACAGAAAUGUAGUUGACGAGGAGGAGGUUUAUCGAAUUUUCGGCGGAUGCCUCCAAA

Tests used:
Details in all cases: with glucosamine-6-phosphate
glucosamine-6-phosphate [1] = variants of: B1; test: self-cleavage kobs at 640 uM GlcN6P; higher = faster cleavage; RNA array
Outline: (§1)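 Tiles of sequenced MiSeq chips were imaged over ~14 h at 37 °C. On them, barcoded ribozyme variants had been transcribed in situ by E. coli RNA polymerase and were tracked via a hybridised Cy3 probe while glucosamine-6-phosphate (40 μM to 10 mM) in HEPES/KCl/Mg(OAc)2 buffer flowed in. Per-tile medians, normalised to baseline and to non-cleaving reference variants, were fit to one- or two-exponential decays for kobs, and weighted Michaelis–Menten fits gave kcat and KM.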

glucosamine-6-phosphate [2] = variants of: B1; test: self-cleavage kobs at 160 uM GlcN6P; higher = faster cleavage; RNA array
Outline: as §1

glucosamine-6-phosphate [3] = variants of: B1; test: self-cleavage kobs at 2500 uM GlcN6P; higher = faster cleavage; RNA array
Outline: as §1

glucosamine-6-phosphate [4] = variants of: B1; test: self-cleavage kobs at 10000 uM GlcN6P; higher = faster cleavage; RNA array
Outline: as §1

Row | Variant | self-cleavage kobs at 640 uM GlcN6P (glucosamine-6-phosphate [1]) [s⁻¹] | self-cleavage kobs at 160 uM GlcN6P (glucosamine-6-phosphate [2]) [s⁻¹] | self-cleavage kobs at 2500 uM GlcN6P (glucosamine-6-phosphate [3]) [s⁻¹] | self-cleavage kobs at 10000 uM GlcN6P (glucosamine-6-phosphate [4]) [s⁻¹]
1 | A42G U55A A64C | < 1e-05 | – | – | –
2 | C34U G38A G44U | < 1e-05 | < 1e-05 | < 1e-05 | –
3 | U30C C58U C67G C71A | 0.000584 ± 0.00013 | 0.000188 ± 5.3e-05 | 0.000197 ± 4.3e-05 | –
4 | G37C G59A C67G | < 1e-05 | < 1e-05 | – | –
5 | U46A C50A | < 1e-05 | – | < 1e-05 | –
6 | G44C C50G | < 1e-05 | < 1e-05 | < 1e-05 | < 1e-05
7 | G13A G35C | < 1e-05 | – | – | –
8 | A33G C34G A36C C68A | < 1e-05 | – | – | –
9 | G32C U69A | 0.00639 ± 0.0029 | < 1e-05 | – | 2.46e-05 ± 1.2e-05
10 | G40C U47G | 0.000157 ± 2.4e-05 | 7.96e-05 ± 1.8e-05 | 0.00041 ± 5.3e-05 | –
11 | G32C G38A C50G | 0.000119 ± 3e-05 | 0.000156 ± 5.3e-05 | – | –
12 | U30G G41A U55C G63U | < 1e-05 | – | < 1e-05 | –
13 | A14C G43U U56A C68U | 9.14e-05 ± 2.6e-05 | – | 0.000133 ± 3.7e-05 | –
14 | C16G A39U C68A | < 1e-05 | – | – | < 1e-05
15 | G29U G43C U47A G63A | < 1e-05 | < 1e-05 | < 1e-05 | –
16 | G29C A52U A53G | < 1e-05 | – | – | –
17 | A15C C16U A33C C67G C70U | < 1e-05 | – | < 1e-05 | –
18 | A33G U56C G60C | < 1e-05 | – | – | –
19 | A39G U47G G59C | < 1e-05 | – | – | –
20 | G35A G41U G51C | < 1e-05 | – | – | –

Row | Variant | self-cleavage kobs at 640 uM GlcN6P (glucosamine-6-phosphate [1]) [s⁻¹] | self-cleavage kobs at 160 uM GlcN6P (glucosamine-6-phosphate [2]) [s⁻¹] | self-cleavage kobs at 2500 uM GlcN6P (glucosamine-6-phosphate [3]) [s⁻¹] | self-cleavage kobs at 10000 uM GlcN6P (glucosamine-6-phosphate [4]) [s⁻¹]
21 | G13U G51C | < 1e-05 | – | – | < 1e-05
22 | A15U A33U G43A G44A C50G G59A C67U | < 1e-05 | < 1e-05 | < 1e-05 | –
23 | G37C G41A G44A G51C C61A C71A | < 1e-05 | < 1e-05 | < 1e-05 | –
24 | A15U G38A A42C U45A | < 1e-05 | – | – | –
25 | A14G G63C | < 1e-05 | < 1e-05 | – | < 1e-05
26 | U45A U46C U47G C70U | 0.000175 ± 8.3e-05 | – | – | –
27 | A33U A39U A64G G66C | < 1e-05 | – | – | –
28 | G29C U45C U49C | < 1e-05 | – | – | –
29 | G38U A48U | < 1e-05 | < 1e-05 | < 1e-05 | –
30 | G44U A52C C70G | < 1e-05 | – | – | –
31 | A14C G38A G66A | < 1e-05 | – | – | –
32 | U30C C70G | 6.49e-05 ± 1.1e-05 | 5.73e-05 ± 1.4e-05 | – | –
33 | G37U A39C A64G U69G | < 1e-05 | – | – | –
34 | C34U G43C U55A | < 1e-05 | – | – | –
35 | G38A U45C C70G | < 1e-05 | – | – | –
36 | C19A A33U C50G U56C C58U G63U C68G | 0.000599 ± 0.00016 | – | – | –
37 | G32U G41A G66C C67A | < 1e-05 | – | < 1e-05 | –
38 | U30G A39U U65C | 0.000103 ± 3.8e-05 | – | – | 0.000419 ± 6.3e-05
39 | C34G A53G C68G | 0.000115 ± 2.5e-05 | 0.000101 ± 2.4e-05 | 8.44e-05 ± 3.6e-05 | –
40 | G38U U47C G63C | < 1e-05 | – | – | –

Row | Variant | self-cleavage kobs at 640 uM GlcN6P (glucosamine-6-phosphate [1]) [s⁻¹] | self-cleavage kobs at 160 uM GlcN6P (glucosamine-6-phosphate [2]) [s⁻¹] | self-cleavage kobs at 2500 uM GlcN6P (glucosamine-6-phosphate [3]) [s⁻¹] | self-cleavage kobs at 10000 uM GlcN6P (glucosamine-6-phosphate [4]) [s⁻¹]
41 | U31A A42C C70G | < 1e-05 | < 1e-05 | – | –
42 | C16G U30A U55G | 0.000125 ± 5.7e-05 | – | 8.11e-05 ± 3.1e-05 | –
43 | U46G G51A A64U | < 1e-05 | – | < 1e-05 | –
44 | G44U A48G C70G | < 1e-05 | – | < 1e-05 | –
45 | A15U U31A A48U C58G C61A | < 1e-05 | – | < 1e-05 | –
46 | A15C G35C | < 1e-05 | < 1e-05 | < 1e-05 | < 1e-05
47 | A33C G35U C68U | < 1e-05 | < 1e-05 | < 1e-05 | –
48 | G32C G51A | < 1e-05 | – | < 1e-05 | –
49 | C34U G41A C68U | < 1e-05 | – | – | –
50 | G37A G51U U57G C68A | < 1e-05 | – | – | –
51 | G13C G62U G66C | < 1e-05 | – | < 1e-05 | –
52 | G29A U49A A53G C68A | 7.05e-05 ± 2.9e-05 | – | – | –
53 | A36G G38C U49G U55G C58G G59U | < 1e-05 | < 1e-05 | – | –
54 | G29C G40A G44U A64G | < 1e-05 | – | < 1e-05 | –
55 | G43U G44A C61G A64U | < 1e-05 | – | < 1e-05 | –
56 | A36G G40U | < 1e-05 | < 1e-05 | – | < 1e-05
57 | A36G G40C | < 1e-05 | < 1e-05 | < 1e-05 | –
58 | G41U U45G | 0.000129 ± 1.7e-05 | 3.13e-05 ± 1.4e-05 | 0.000339 ± 9.1e-05 | 0.000243 ± 4.4e-05
59 | U45C A52G C70U | 4.7e-05 ± 1.6e-05 | – | 6.92e-05 ± 1.3e-05 | –
